Measurements taken from the supplement of paper PMC10600219.
Counter-ions that a name gives are not always drawn. The full ranking holds about 2,800 compounds; the median of “cell viability relative to vehicle” is about 1.1, and the lowest 2% start at about 0.19. Some of the results follow.

Test system: NCI-H2228 parental
Assay: cell viability relative to vehicle (fraction of vehicle); NCI-H2228 is an ALK-positive lung cancer line and DTP means drug-tolerant persister; higher = less growth inhibition
Conditions: 100 nM; treatment time 6 days
Procedure, shortened: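 Parental NCI-H2228 cells and drug-tolerant persister cells (made with 1000 nM of a targeted drug for 13 days) were seeded in 384-well plates. The next day, the 3114-agent TargetMol anti-cancer compound library was added at 100 nM, with DMSO as vehicle. After 6 days, ATP was read with the CellTiter-Glo 3D Cell Viability Assay. Each value is cell viability relative to vehicle-treated cells.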

Q: For Cc1ccc(NC(=O)c2cccc(N(C)C)c2)cc1NC(=O)c1ccc(O)cc1, which cell viability is on record?
A: 1.03

Q: O=C1NCCc2[nH]c(-c3ccncc3)cc21 was tested. Which cell viability did it give?
A: 1.08

Q: Which cell viability does the source give for CC(C)=CCC[C@](C)(O[C@@H]1O[C@H](CO)[C@@H](O)[C@H](O)[C@H]1O)[C@H]1CC[C@]2(C)[C@@H]1[C@H](O)C[C@@H]1[C@@]3(C)CC[C@H](O)C(C)(C)[C@@H]3[C@@H](O[C@@H]3O[C@H](CO)[C@@H](O)[C@H](O)[C@H]3O)C[C@]12C [Ginsenoside Rg1] here?
A: 1.07

Q: Which cell viability does the source give for Cc1noc(-c2ccc(-c3ccc(CC(=O)O)cc3)cc2)c1NC(=O)O[C@H](C)c1ccccc1 here?
A: 1.05

Q: How did the cell viability turn out when O=c1sn(-c2cccc3ccccc23)c(=O)n1Cc1ccccc1 [Tideglusib] was run?
A: 0.799

Q: How did the cell viability turn out when O=c1cc(-c2ccccc2)oc2cc(O)cc(O)c12 [Chrysin] was run?
A: 1.3

Q: With Cc1cc(OCCCS(C)(=O)=O)cc(C)c1-c1cccc(COc2ccc3c(c2)OC[C@H]3CC(=O)O)c1 as the molecule, how does the cell viability read?
A: 1.06

Q: CCN(CC)C(=S)SSC(=S)N(CC)CC [Disulfiram] was tested. Which cell viability did it give?
A: 0.753

Q: With O=C1C(=Cc2cccnc2)C(=O)c2ccccc21 as the molecule, how does the cell viability read?
A: 1.1

Q: C=C[C@@]1(C)CC(=O)[C@]2(O)[C@@]3(C)[C@@H](O)CCC(C)(C)[C@@H]3[C@H](O)[C@H](OC(C)=O)[C@@]2(C)O1 [Forskolin] was tested. Which cell viability did it give?
A: 1.12

Q: For O=C(O)[C@@H]1CSCN1 [Thioproline], which cell viability is on record?
A: 1.03

Q: How did the cell viability turn out when O=C(CCCCCN1C(=O)c2cccc3cccc(c23)C1=O)NO [Scriptaid] was run?
A: 0.959

Q: How did the cell viability turn out when Cn1cc(C[C@@H](N)C(=O)O)c2ccccc21 [Indoximod] was run?
A: 1.11

Q: COc1cc2/c(=N/c3ccc(Br)cc3F)nc[nH]c2cc1OCC1CCN(C)CC1 [Vandetanib] was tested. Which cell viability did it give?
A: 1.09

Q: Which cell viability does the source give for C[C@H](N)[C@H](O)c1cccc(O)c1 [Metaraminol bitartrate] here?
A: 0.905

Q: With CC1CCC2(OC1)OC1CC3C4CCC5CC(O)CCC5(C)C4CCC3(C)C1C2C (stereo unspecified) [Spirostan-3-ol] as the molecule, how does the cell viability read?
A: 1.03

Q: Which cell viability does the source give for Cn1cc(-c2nc(N[C@@H]3CCCC[C@@H]3N)c(F)c3c2C(=O)NC3)cn1 [TAK-659 hydrochloride] here?
A: 1.01

Q: For CCN(CC)CCOC(=O)C(Cc1cccc2ccccc12)CC1CCCO1 (stereo unspecified) [Nafronyl oxalate], which cell viability is on record?
A: 0.983

Q: How did the cell viability turn out when CC(C)NCC(O)COc1ccc(COCCOC(C)C)cc1 (racemic) [(±)-Bisoprolol hemifumarate] was run?
A: 1.14

Q: Which cell viability does the source give for CC1(C)S[C@@H]2[C@H](NC(=O)C(C(=O)O)c3ccccc3)C(=O)N2[C@H]1C(=O)O (stereo partly specified) [Carbenicillin disodium] here?
A: 1.02

Q: C[C@H](CCC(=O)NCC(=O)O)[C@H]1CC[C@H]2[C@@H]3[C@H](O)C[C@@H]4C[C@H](O)CC[C@]4(C)[C@H]3CC[C@]12C [Glycochenodeoxycholic Acid] was tested. Which cell viability did it give?
A: 1.02

Q: COc1cc(O)c2c(=O)c(O[C@@H]3O[C@H](CO)[C@@H](O)[C@H](O)[C@H]3O)c(-c3ccc(O[C@@H]4O[C@H](CO)[C@@H](O)[C@H](O)[C@H]4O)cc3)oc2c1 [Complanatoside] was tested. Which cell viability did it give?
A: 1.07

Q: CC(C)N(CCCNC(=O)Nc1ccc(C(C)(C)C)cc1)C[C@H]1O[C@@H](n2cc(Br)c3c(N)ncnc32)[C@H](O)[C@@H]1O was tested. Which cell viability did it give?
A: 1.16

Q: With C=C1CC[C@@H]2[C@](C)(CO[C@@H]3O[C@H](CO)[C@@H](O)[C@H](O)[C@H]3O)CCC[C@@]2(C)[C@@H]1CCC1=CCOC1=O [Neoandrographolide] as the molecule, how does the cell viability read?
A: 1.08

Q: With Cc1cc(NS(=O)(=O)c2ccc(N)cc2)no1 [Sulfamethoxazole] as the molecule, how does the cell viability read?
A: 1.09

Q: How did the cell viability turn out when Nc1[nH]nc2nnc(-c3c(-c4ccccc4)nn4ccccc34)cc12 was run?
A: 1.04

Q: Which cell viability does the source give for C[C@@H]1CC(=O)Nc2cccc(-c3ccc4c(c3)c(-c3cnn(C)c3)nn4C)c2N1 here?
A: 1.12

Q: With COc1cc(C(C)=O)ccc1OCCCN1CCC(c2noc3cc(F)ccc23)CC1 [Iloperidone] as the molecule, how does the cell viability read?
A: 1.24

Q: CCN(CC)CCNC(=O)c1c(C)[nH]c(/C=C2\C(=O)Nc3ccc(-c4csc(-c5ccccc5)n4)cc32)c1C [Amcasertib] was tested. Which cell viability did it give?
A: 1.09

Q: Which cell viability does the source give for Cc1cccc(C)c1N(CC(=O)Nc1ccc(-c2ncon2)cc1)C(=O)C1CCS(=O)(=O)CC1 [Amenamevir] here?
A: 0.857

Q: With COc1ccc(/C=C\c2cc(OC)c(OC)c(OC)c2)cc1O [Combretastatin A4] as the molecule, how does the cell viability read?
A: 0.294

Q: With O=C([O-])CN(CCN(CC(=O)[O-])CC(=O)O)CC(=O)[O-].[Na+].[Na+].[Na+] [Edetate Trisodium] as the molecule, how does the cell viability read?
A: 1.13

Q: How did the cell viability turn out when c1cc(-c2cnn3cc(-c4ccc(N5CCNCC5)cc4)cnc23)c2cccnc2c1 was run?
A: 1.03

Q: NCCCC[C@@H]1NC(=O)[C@@H](Cc2ccccc2)NC(=O)[C@H](CC(=O)O)NC(=O)CNC(=O)[C@H](CCCN=C(N)N)NC1=O [Cyclo (-RGDfK)] was tested. Which cell viability did it give?
A: 1.09

Q: Cn1c(=O)c(Oc2ccc(F)cc2F)cc2cnc(NC(CCO)CCO)nc21 [Pamapimod] was tested. Which cell viability did it give?
A: 1.05

Q: Which cell viability does the source give for N#Cc1ccnc(Nc2cc(C3CCN(C4COC4)CC3)cc(N3CCC(F)(F)C3)n2)c1 here?
A: 0.96

Q: CC(C(=O)O)c1cccc(C(=O)c2ccccc2)c1 (stereo unspecified) [Ketoprofen] was tested. Which cell viability did it give?
A: 1.22

Q: Which cell viability does the source give for O[C@@H]1[C@H](O)[C@H](O)CO[C@H]1O [D-(-)-Ribose] here?
A: 1.09

Q: With CCCCN(Cc1ccc(C(=O)NO)cc1)C(=O)Nc1ccccc1 [Nexturastat A] as the molecule, how does the cell viability read?
A: 0.964

Q: For Cn1c(=O)cc(C(=O)Nc2ccc3c(c2)OCCO3)c2ccccc21, which cell viability is on record?
A: 0.98

Q: Which cell viability does the source give for CNC(=O)c1ccccc1Nc1nc(Nc2ccc(N3CCOCC3)cc2OC)ncc1Cl here?
A: 0.484

Q: For CC1=C(C(=O)Nc2cc3cn[nH]c3cc2F)C(c2ccc(C(F)(F)F)cc2)CC(=O)N1 (stereo unspecified), which cell viability is on record?
A: 1.08

Q: For O=NN(CCCl)C(=O)NCCCl [Carmustine], which cell viability is on record?
A: 1.16

Q: For CCOC(=O)c1ncn2c1CN(C)C(=O)c1cc(F)ccc1-2 [Flumazenil], which cell viability is on record?
A: 1.09

Q: Which cell viability does the source give for COc1cc(/C=C/c2ccc(O)cc2)cc(OC)c1 [Pterostilbene] here?
A: 0.953

Q: With Cc1cc(C(=O)Nc2nc3cccc(Cl)c3n2[C@@H]2CCCCN(C(=O)/C=C/CN(C)C)C2)ccn1 [Nazartinib] as the molecule, how does the cell viability read?
A: 1.09

Q: How did the cell viability turn out when Cn1c(=O)n(-c2ccc(C(C)(C)C#N)cc2)c2c3cc(-c4cnc5ccccc5c4)ccc3ncc21 [Dactolisib] was run?
A: 0.258

Q: Which cell viability does the source give for C[C@@H]1CC[C@]2(C(=O)O)CC[C@]3(C)C(=CCC4[C@@]5(C)CC[C@H](O[C@@H]6OC[C@H](O)[C@H](O)[C@H]6O)C(C)(C)C5CC[C@]43C)[C@@H]2[C@]1(C)O (stereo partly specified) [Ziyuglycoside II] here?
A: 1.12

Q: CCOc1cc(CC(=O)N[C@@H](CC(C)C)c2ccccc2N2CCCCC2)ccc1C(=O)O [Repaglinide] was tested. Which cell viability did it give?
A: 1.02

Q: How did the cell viability turn out when O=C(O)C(Cc1c[nH]c2ccccc12)N1C(=O)c2ccccc2C1=O (stereo unspecified) was run?
A: 1.05

Q: For C#C[C@]1(O)CC[C@H]2[C@@H]3CCc4cc(O)ccc4[C@H]3CC[C@@]21C [Ethynyl estradiol], which cell viability is on record?
A: 1.24

Q: Which cell viability does the source give for COc1cc(F)c(F)c(Nc2ccc(I)cc2F)c1NS(=O)(=O)C1(C[C@H](O)CO)CC1 [Refametinib] here?
A: 1.01

Q: How did the cell viability turn out when O=C(O)c1ccc(N2C(=O)/C(=C\c3ccc(-c4ccc([N+](=O)[O-])cc4)o3)C=C2c2ccccc2)cc1 [4E1rcat] was run?
A: 1.11

Q: CC(C)n1cnc2c(-c3cnc(N)nc3)nc(N3CCOCC3)nc21 [Desmethyl-VS-5584] was tested. Which cell viability did it give?
A: 0.867

Q: For Cc1nc2cccc(N)c2c(=O)n1C1CCC(=O)NC1=O (stereo unspecified) [Avadomide], which cell viability is on record?
A: 1.18

Q: CC#CC(=O)Nc1ccc2ncnc(Nc3cccc(Br)c3)c2c1 was tested. Which cell viability did it give?
A: 0.962

Q: Which cell viability does the source give for O=S(=O)(c1ccccc1)N(CC(F)(F)F)c1ccc(C(O)(C(F)(F)F)C(F)(F)F)cc1 here?
A: 0.943

Q: Which cell viability does the source give for O=C(O)Cn1c2c(c3cc(F)ccc31)CN(C(=O)c1cccc3ccccc13)CC2 [Setipiprant] here?
A: 1.18

Q: How did the cell viability turn out when CC(C)(CCCCCC(O)CCCCCC(C)(C)C(=O)O)C(=O)O was run?
A: 1.1

Q: How did the cell viability turn out when Nc1nc2c(ncn2COCCO)c(=O)[nH]1 [Aciclovir] was run?
A: 1.33

Q: With Cc1cc(O)c(C(=O)CCC(C)C)c(=O)o1 [Pogostone] as the molecule, how does the cell viability read?
A: 1.04

Q: COc1ccc(S(=O)(=O)Nc2c(C)cc(C)cc2C)cc1 was tested. Which cell viability did it give?
A: 1.04

Q: Oc1ccc(-c2c(-c3ccccc3)nn3c(C(F)(F)F)cc(C(F)(F)F)nc23)cc1 was tested. Which cell viability did it give?
A: 0.97

Q: For COc1ccc2[nH]c([S@@+]([O-])Cc3ncc(C)c(OC)c3C)nc2c1 [Esomeprazole Magnesium], which cell viability is on record?
A: 1.21

Q: Which cell viability does the source give for CC(C)NCC(O)c1ccc(O)c(O)c1 (stereo unspecified) [Isoprenaline hydrochloride] here?
A: 0.859

Q: For CS(=O)(=O)N1CCN(Cc2cc3nc(-c4cccc5[nH]ncc45)nc(N4CCOCC4)c3s2)CC1 [Pictilisib], which cell viability is on record?
A: 0.869

Q: Which cell viability does the source give for COc1ncnc(NS(=O)(=O)c2ccc(N)cc2)c1OC [Sulfadoxine] here?
A: 1.2

Q: Which cell viability does the source give for Nc1nc2cc(-c3ccc4ncc(C(=O)N5CCOCC5)n4c3)ccc2o1 [Serabelisib] here?
A: 1.11

Q: For COc1c(N2C[C@@H]3CCCN[C@@H]3C2)c(F)cc2c(=O)c(C(=O)O)cn(C3CC3)c12 [Moxifloxacin hydrochloride], which cell viability is on record?
A: 1.02

Q: How did the cell viability turn out when CC(C)(C)c1ccc(C(=O)NC(=S)Nc2ccc(N)cc2)cc1 [Tenovin3] was run?
A: 0.844

Q: With CCc1ccc(-c2nc(CSCC(=O)NCCc3ccccc3)c(C)o2)cc1 as the molecule, how does the cell viability read?
A: 1.1

Q: How did the cell viability turn out when Cc1ccc2nc(CN(CCN(Cc3nc4ccc(C)cc4[nH]3)Cc3nc4ccc(C)cc4[nH]3)Cc3nc4ccc(C)cc4[nH]3)[nH]c2c1 was run?
A: 1.02

Q: N[C@@H](Cc1c[nH]c2ccccc12)C(=O)O [L-Tryptophan] was tested. Which cell viability did it give?
A: 1.15

Q: Which cell viability does the source give for Nc1c(S(=O)(=O)c2ccccc2)c2nc3ccccc3nc2n1-c1ccc(F)cc1 here?
A: 0.984

Q: With Cc1ncc(-c2ccnc(Nc3ccc(S(C)(=O)=O)cc3)n2)n1C(C)C as the molecule, how does the cell viability read?
A: 0.785

Q: For Cc1c(NC(=O)c2cccnc2)c(=O)n(-c2ccccc2)n1C [Nifenazone], which cell viability is on record?
A: 1
